SMILES strings stand for the structures. The whole screen tested about 310,000 compounds, of which about 2,200 (0.71%) showed an effect of 50% or more. The effect is printed as a negative number. The list shows a part of the results.

In this assay the target is human ether-à-go-go-related gene (hERG) potassium channel (human, UniProt Q12809). The experiment in a line: primary screen, population patch clamp on CHO cells stably expressing hERG.
Chain of human ether-à-go-go-related gene (hERG) potassium channel (Q12809 whole entry, looked up): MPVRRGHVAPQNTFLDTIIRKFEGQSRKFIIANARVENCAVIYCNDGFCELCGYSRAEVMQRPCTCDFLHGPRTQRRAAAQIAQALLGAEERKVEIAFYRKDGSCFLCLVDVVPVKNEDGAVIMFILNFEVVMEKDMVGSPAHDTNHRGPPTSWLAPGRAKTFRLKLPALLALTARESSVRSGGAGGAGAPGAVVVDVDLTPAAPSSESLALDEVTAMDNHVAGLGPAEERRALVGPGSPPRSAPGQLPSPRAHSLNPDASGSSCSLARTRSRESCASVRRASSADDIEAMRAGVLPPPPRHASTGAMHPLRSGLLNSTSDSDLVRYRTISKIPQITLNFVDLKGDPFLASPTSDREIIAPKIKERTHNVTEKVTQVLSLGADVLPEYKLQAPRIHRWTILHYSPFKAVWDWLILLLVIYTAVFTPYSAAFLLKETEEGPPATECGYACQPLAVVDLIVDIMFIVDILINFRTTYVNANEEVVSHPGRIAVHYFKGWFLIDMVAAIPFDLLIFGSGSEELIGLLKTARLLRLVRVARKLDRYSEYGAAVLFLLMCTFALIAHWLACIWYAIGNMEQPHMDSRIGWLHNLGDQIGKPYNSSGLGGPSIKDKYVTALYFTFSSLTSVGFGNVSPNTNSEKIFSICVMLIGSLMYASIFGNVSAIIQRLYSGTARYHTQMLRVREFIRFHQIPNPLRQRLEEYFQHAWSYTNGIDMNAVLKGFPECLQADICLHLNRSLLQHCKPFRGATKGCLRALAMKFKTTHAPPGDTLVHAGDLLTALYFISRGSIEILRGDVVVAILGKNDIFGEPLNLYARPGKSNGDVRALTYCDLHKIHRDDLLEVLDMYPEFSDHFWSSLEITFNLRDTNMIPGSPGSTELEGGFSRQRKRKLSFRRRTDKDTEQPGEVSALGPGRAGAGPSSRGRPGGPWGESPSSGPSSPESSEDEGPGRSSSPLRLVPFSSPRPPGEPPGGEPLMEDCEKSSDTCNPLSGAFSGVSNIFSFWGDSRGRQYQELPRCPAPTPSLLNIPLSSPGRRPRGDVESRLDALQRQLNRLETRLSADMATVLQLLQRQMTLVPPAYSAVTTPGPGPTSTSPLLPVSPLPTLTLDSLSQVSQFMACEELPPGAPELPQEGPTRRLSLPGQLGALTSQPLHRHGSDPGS
In the case of `COc1ccc(CN2CCC(C(=O)Nc3ccc(Oc4ccccc4)nc3)CC2)cc1F`, the “hERG current change (%, negative = inhibition) at 1uM” value is given as -37.8%.
On to `Cc1cnc(NC(=O)CCCc2nc3ccccc3s2)s1`, for which the “hERG current change (%, negative = inhibition) at 1uM” value is on record as 0.54%.
The figure for `COc1ccc(CCN2CCCn3c2nc2c3c(=O)n(CC(N)=O)c(=O)n2C)cc1OC` is 11.6%.
As to `Cc1cc(Oc2ccc(=O)n(C)n2)nc(SCc2ccccc2)n1`, the “hERG current change (%, negative = inhibition) at 1uM” value is on record as 10.1%.
Consider `O=C(O)CC12CC3CC(C1)CC(n1ncc(NCc4ccccc4)c(Cl)c1=O)(C3)C2`, for which the “hERG current change (%, negative = inhibition) at 1uM” value turned out to be 11.3%.
As to `CCC(C)[C@H](NC(=O)[C@@H]1CSC2c3ccccc3C(=O)N21)C(=O)N1CCCCC1` (stereo partly shown), the “hERG current change (%, negative = inhibition) at 1uM” value stood at 8.7%.
The value for `Cn1c(SCC(=O)Nc2ccc(N3CCOCC3)c(Cl)c2)nnc1-c1ccccc1` was 12%; that for `NS(=O)(=O)c1ccc(CCNC(=O)C(=O)Nc2cc3c4c(c2)CC(=O)N4CCC3)cc1` was 5.38%; that for `COC(=O)c1ccc(C)c(NC(=O)Cn2cnc3ccccc3c2=O)c1` was -4.84%.
With `COc1ccccc1Nc1nc(N2CCCC2)nc(N2CCOCC2)n1`, the “hERG current change (%, negative = inhibition) at 1uM” value is reported as 19.3%.
The figure for `Cc1ccccc1NS(=O)(=O)c1ccc(C)c(C(=O)N2CCOCC2)c1` is 6.13%.
On to `CCOC(=O)c1cc2sccc2n1CCCN1C(=O)c2ccccc2C1=O`, for which the “hERG current change (%, negative = inhibition) at 1uM” value worked out at 15.3%.
Take `Cn1c(SCC(=O)Nc2nccs2)nnc1-c1ccco1`: the “hERG current change (%, negative = inhibition) at 1uM” value is given as 6.02%.
`Clc1ccc(OCc2nnc(SCc3nc4ccccc4[nH]3)n2Cc2ccco2)cc1`: the “hERG current change (%, negative = inhibition) at 1uM” value is given as 2.11%.
As to `CC1CCN(c2ccc3nnc(CCC(=O)NC(C)C)n3n2)CC1`, the “hERG current change (%, negative = inhibition) at 1uM” value is 11.8%.
As for `O=C(CN(C(=O)c1csnn1)c1ccc(Br)cc1)NC1CCCCC1`, the “hERG current change (%, negative = inhibition) at 1uM” value was found to be 13.7%.
The figure for `Nc1cccc(NC(=O)c2ccco2)c1` is 8.56%; for `Cc1nn(C)c(Oc2ccccc2)c1CCNC(=O)CC(C)C` it is 8.21%; for `COc1ccccc1CC(=O)Nc1ccc2nc(C)sc2c1` it is 11.2%.
Consider `CCN1CCN(c2cc(C)c3cc(NC(=O)Cc4ccc(OC)c(OC)c4)ccc3n2)CC1`, for which the “hERG current change (%, negative = inhibition) at 1uM” value came out at 8.9%.
With `O=C(/C=C/c1ccc(O)c(O)c1)O[C@@H]1C[C@](O)(C(=O)O)C[C@@H](O)[C@H]1O`, the “hERG current change (%, negative = inhibition) at 1uM” value is 11.5%.
As to `O=C(NCc1ccccc1)C1CCC1`, the “hERG current change (%, negative = inhibition) at 1uM” value was determined as 19.8%.
Consider `CCOC(=O)c1c(NC(=O)CN(C)C)sc(C(=O)N(CC)CC)c1C.O=C(O)C(=O)O`, for which the “hERG current change (%, negative = inhibition) at 1uM” value is -1.61%.
Take `O=S(=O)(c1cc(Cl)ccc1Cl)N1CCCC1`: the “hERG current change (%, negative = inhibition) at 1uM” value worked out at 5.68%.
On to `Nc1nc(SCC(=O)NC2CCCCC2)[nH]c(=O)c1-c1ccccc1`, for which the “hERG current change (%, negative = inhibition) at 1uM” value was found to be 2.58%.
As to `COC(=O)c1onc(-c2c(Cl)cccc2Cl)c1C(=O)OC`, the “hERG current change (%, negative = inhibition) at 1uM” value came to 20.9%.
`COCCCNC(=S)NNC(=O)c1ccccn1`: the “hERG current change (%, negative = inhibition) at 1uM” value came out at 17%.
As to `COc1ccc(CN(C(=O)c2cc3ccccc3oc2=O)C2CCCC2)cc1`, the “hERG current change (%, negative = inhibition) at 1uM” value is -3.53%.
As to `CC(C)CN(C(=O)CC1CCCC1)c1c(N)n(Cc2ccccc2)c(=O)[nH]c1=O`, the “hERG current change (%, negative = inhibition) at 1uM” value was determined as 4.91%.
The value for `COc1ccc(CNC(=O)C(=O)NCCC2CCCCN2S(=O)(=O)c2ccc(C)cc2)cc1` (stereo not shown) was 12.3%; that for `CCC(CC)NC(=O)COC(=O)c1ccc(NS(=O)(=O)c2ccc3c(c2)OCCO3)cc1` was 2.14%.
Regarding `O=C(CNC(=O)Cc1ccccc1)NCc1cccc(C(F)(F)F)c1`, the “hERG current change (%, negative = inhibition) at 1uM” value is recorded as 7.73%.
Turning to `Cl.O=[N+]([O-])c1cccc(/C=N\N2CCN(Cc3ccccc3Cl)CC2)c1`, the “hERG current change (%, negative = inhibition) at 1uM” value came to 15.9%.
Turning to `CCn1c(N)c(C(=O)NCc2ccco2)sc1=S`, the “hERG current change (%, negative = inhibition) at 1uM” value is listed as 11.4%.
As for `Cc1ccc(N(CCC#N)C(=O)COC(=O)C2CCN(c3ccc(C(F)(F)F)cn3)CC2)cc1`, the “hERG current change (%, negative = inhibition) at 1uM” value came to 6.66%.
For `COc1cccc(CN2CCNC(=O)C2CC(=O)NCC(C)(C)N2CCOCC2)c1OC` (stereo not shown), the “hERG current change (%, negative = inhibition) at 1uM” value is reported as 15.9%.
As to `O=C(Nc1nc2ccsc2c(=O)s1)c1ccc(Cl)cc1`, the “hERG current change (%, negative = inhibition) at 1uM” value turned out to be 5.65%.
As to `CCOC(=O)c1ccc(NC(=O)CSc2nnc(Cn3c(=O)sc4ccccc43)n2C)cc1`, the “hERG current change (%, negative = inhibition) at 1uM” value is reported as 12.1%.
As to `CC(C)(C)NC(=O)C(c1ccc(F)cc1)N(Cc1ccccc1Cl)C(=O)c1ccn[nH]1` (stereo not shown), the “hERG current change (%, negative = inhibition) at 1uM” value turned out to be 13.2%.
In the case of `COc1cccc(C2/C(=C(/O)c3cnn(-c4ccccc4)c3C)C(=O)C(=O)N2CCN(C)C)c1` (stereo not shown), the “hERG current change (%, negative = inhibition) at 1uM” value worked out at 15.4%.
On to `COc1ccc(C)cc1-n1nnnc1SCC(=O)NC1CCS(=O)(=O)C1` (stereo not shown), for which the “hERG current change (%, negative = inhibition) at 1uM” value was 0.663%.
The figure for `Cc1ccc(NC(=O)C2CCCN2S(=O)(=O)c2ccc3c(c2)n(C)c(=O)c(=O)n3C)c(C)c1` (stereo not shown) is -1.59%.
For `O=C(NCc1cccnc1)C(=O)NCC1OCCN1S(=O)(=O)c1ccc(F)cc1` (stereo not shown), the “hERG current change (%, negative = inhibition) at 1uM” value is recorded as 8.31%.
